Experimental data: PubChem BioAssay AID1347417 (National Center for Advancing Translational Sciences (NCATS), 2020)
About 5,300 (4.4%) of roughly 120,000 compounds were called active. Inconclusive means that the source gave no clear call. Such entries were picked first, then a sample of the others. The call rests on the fitted dose curve; in most records, active means well fitted inhibition curve with a large enough effect; inconclusive means small, poorly fitted or top-dose-only effect; inactive means no such curve, though single readings can be large or run the other way. Potencies beside an inconclusive call are fits to weak or partial responses and may not hold up.

assay: qHTS Primary assay for Inhibitors of Plasmodium falciparum Dd2 growth in vitro; further: nearly all actives have a fitted effect of over 65% in size;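 on activity, negative = inhibition: plate controls were DMSO vehicle for no effect and reference drug for full effect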; conditions: P. falciparum Dd2 growth, SYBR Green, 72 h; activity, negative = inhibition: at 28.9 µM (top of the series) unless noted; series mostly up to 28.9 µM
Summary of the method: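 Infected erythrocytes (Dd2, 0.3% parasitemia, 2.5% hematocrit final) are added to compound in RPMI-1640/Albumax II medium, grown 72 h at 37C in low oxygen, then lysed with saponin/Triton-X containing SYBR Green and read by fluorescence.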
Potency means the concentration at half of the fitted maximal effect; tags describe the fitted curve by direction and shape.

Row | Compound | activity, negative = inhibition | Potency | outcome
1 | Cc1ccc(NC(=O)Cn2c(=O)n(Cc3nc(C)no3)c(=O)c3ccccc32)c(Cl)c1 | inactive: -17.1% [at 5.79 µM] |  | 
2 | Cc1cccc(C)c1OCCCn1c(CCNC(=O)C2CCCCC2)nc2ccccc21 |  | inconclusive: 12.6 µM [inhibitor, partial curve, poor fit] | 
3 | COc1cccc([C@H]2CN(c3cc(C)nc(N)n3)[C@@H]3C4CCN(CC4)[C@H]23)c1 |  | active: 11.2 µM | 
4 | CN1C(=O)C2(CCN(Cc3cccnc3)C2)c2ccccc21 (centres undefined) |  | inconclusive: 11.2 µM [inhibitor, partial curve, poor fit] | 
5 | Cc1c(C(=O)Nc2cccc(Cl)c2)sc2nc3n(c(=O)c12)N=C(c1cccc(Br)c1)CS3 |  | inconclusive: 5.62 µM [inhibitor, partial curve] | 
6 | CCCOCCNC(=O)c1c(C)noc1-c1ccc(C(C)(C)C)cc1 |  | inconclusive: 10 µM [inhibitor, single point] | 
7 | COc1ccc(CN2CCc3nc(C)nc(-c4ccc(OC)cc4)c3CC2)cc1 |  | inconclusive: 17.8 µM [inhibitor, single point] | 
8 | O=C1NCCCCCN(C(=O)COc2ccccc2)[C@@H]2C[C@@H](C(=O)N3CCc4ccccc4C3)C[C@H]12 |  | inconclusive: 1.41 µM [inhibitor, full curve] | 
9 | COc1cccc(CN2CCC[C@@H](O)[C@H](NC(=O)c3ccc(OCc4ccccc4)cc3)C2)c1 |  | inconclusive: 1.26 µM [inhibitor, partial curve, poor fit] | 
10 | CCOc1ccc(N(CC)S(=O)(=O)N2CCCC(C(=O)Nc3ccc(C(C)=O)cc3)C2)cc1 (centres undefined) |  | inconclusive: 20 µM [inhibitor, single point] | 
11 | COc1cccc(C(=O)c2c(N)c(-c3nc(-c4ccccc4)cs3)c3ccccn23)c1 |  | inconclusive: 17.8 µM [inhibitor, single point] | 
12 | CCC1=C(C(=O)OC)C(c2ccccc2F)N2C(CC(=O)N3CCC(C)CC3)=CSC2=N1 (centres undefined) |  | inconclusive: 1.78 µM [inhibitor, partial curve, poor fit] | 
13 | CCNC(=O)N1CCOC(CN(CC2CC2)C(=O)c2cccc(F)c2)C1 (centres undefined) |  | inconclusive: 8.91 µM [inhibitor, partial curve, poor fit] | 
14 | CCCN1CCCCC12Cc1ccccc1CN([S+](C)(=O)[O-])C2 (centres undefined) |  | inconclusive: 8.91 µM [inhibitor, single point] | 
15 | Cn1ccnc1C(=O)N1CC2CC(C1)[C@H]1CCCC(=O)N1C2 (some centres undefined) | inactive: 7.37% |  | 
16 | COCc1nncn1C1CCN(C(=O)c2cccc(OC)c2)CC1 |  |  | inactive
17 | Fc1ccc(-c2nn(-c3ccccc3Cl)c3c2cnc2ccccc23)cc1 |  | inconclusive: 17.8 µM [inhibitor, single point] | 
18 | CCN1CCN(C[C@@H]2CN(Cc3ccccc3OC(F)F)C[C@@H]2CO)CC1 |  | inconclusive: 20 µM [inhibitor, single point] | 
19 | CN(C)c1cccc(Oc2nnnn2[C@H]2CO[C@H]3[C@@H]2OC[C@@H]3NC(=O)Nc2cccc3ccccc23)c1 |  | inconclusive: 11.2 µM [inhibitor, partial curve, poor fit] | 
20 | Cc1cc(F)ccc1OC1CN(C(=O)c2ccccc2)C1 |  | inconclusive: 12.6 µM [inhibitor, single point] | 

Row | Compound | activity, negative = inhibition | Potency | outcome
21 | CCCCCn1c(CCNC(=O)c2ccc(F)cc2)nc2ccccc21 |  | inconclusive: 10 µM [inhibitor, single point] | 
22 | O=C(NCc1c[nH]c2ncccc12)c1ccc2ccccc2n1 |  |  | inactive [at 44.1 µM]
23 | CCC(Oc1ccccc1)C(=O)Nc1cc(-c2cccc(C)c2)nn1-c1ccccc1 (centres undefined) |  | inconclusive: 8.91 µM [inhibitor, partial curve, poor fit] | 
24 | CN1c2cc(C(=O)NCc3ccc(F)cc3F)ccc2C(=O)N2CCCCC21 (centres undefined) |  | inconclusive: 5.62 µM [inhibitor, partial curve, poor fit] | 
25 | O=C(c1ccc(Cl)cc1)N1CCNc2cnc(Nc3ccccc3)nc2C1 |  | inconclusive: 31.6 µM [inhibitor, single point] | 
26 | Cc1ccc(OCc2nc(C3CN(C(=O)c4ccc5nc[nH]c5c4)C3)no2)cc1 |  | inconclusive: 0.0794 µM [inhibitor, full curve, poor fit] | 
27 | Cc1nc2c(c(-c3ccc(O)cc3)n1)CN(Cc1ccc(N(C)C)cc1)CCC2 |  | inconclusive: 3.98 µM [inhibitor, single point] | 
28 | COc1ccc(C(=O)N[C@H]2C[C@H]3C(=O)NC[C@@H](CCC(=O)NCc4cccnc4)N3C2)cc1 | inactive: 22% |  | 
29 | O=C(c1ccccc1F)N1CCCC2(C1)NC(=O)N(Cc1ccc(Cl)cc1)C2=O (centres undefined) | inactive: -0.469% |  | 
30 | COc1ccccc1NC(=O)c1oc2ccccc2c1NC(=O)c1cccc(OC)c1OC |  | inconclusive: 10 µM [inhibitor, single point] | 
31 | Cc1nc(C)c(C(=O)N(C)C2CCc3nn(CC4CC4)c(=O)n3CC2)s1 (centres undefined) | inactive: 41.5% |  | 
32 | CCn1ccc(C(=O)N2CCN(c3cc(-c4ccc(Cl)cc4)[nH]n3)CC2)n1 |  | inconclusive: 2.82 µM [inhibitor, single point] | 
33 | COc1ccc(NC(=O)N[C@H]2CO[C@H]3[C@@H]2OC[C@@H]3n2nnnc2Oc2ccccc2)cc1 |  | inconclusive: 11.2 µM [inhibitor, partial curve, poor fit] | 
34 | CN(C)c1ccc(C(=O)N2CCCC(COc3ccccc3C(=O)N3CCCC3)C2)cc1 (centres undefined) |  | active: 6.31 µM | 
35 | O=C(c1ccc2c(c1)N(Cc1ccc(F)cc1)C(=O)c1ccccc1S2(=O)=O)N1CCCC1 | inactive: -10.1% |  | 
36 | CCC(=O)N1CCCc2cc(S(=O)(=O)N3CCC(C(=O)NC4CCCCC4)CC3)ccc21 |  | inconclusive: 17.8 µM [inhibitor, single point] | 
37 | CN1C(=O)c2cccn2CC1CNC(=O)Cc1c[nH]c2ccccc12 (centres undefined) | inactive: 14.4% |  | 
38 | Cc1nn2c(c1-c1ccccc1OCc1ccccc1)N(C(=O)Cc1ccccn1)CCC2 |  | inconclusive: 12.6 µM [inhibitor, partial curve, poor fit] | 
39 | Cn1cc(CN2CCCC(COc3ccccc3C(=O)NC3CC3)C2)c2ccccc21 (centres undefined) |  | inconclusive: 1.41 µM [inhibitor, partial curve, poor fit] | 
